# Reference: the supplement of paper PMC8728848
# Some of the results follow.
# B1: SSP1 (Sclerotinia sclerotiorum), XP_001584968 (protein)
# chain: MGSSHHHHHHSSGLVPRGSHMSLLTTELACTSAPDQVLHLFFQDGQNILEARSPDGGNVWTTQDTIIAKDGDYNGSSMTCYYVDKDANFDNQPSIHLLYMNKDKQLTEKVKRMKGDNPIWEDAKVPDEVRKGPEQYSKLTSGSFNQGTGWNPNGSQWAYFSASKDGKMGIVEIRRTPKDPWHTETILEEKWGDELPGTALACVIGNGKIRVFLQHHDYSIILYENQNNTWHDRGTFIPKDKVQATTPLACTMTKDGSVHLFYVSKSNKIIHCTDGKKEEELINFFPGSKLGATSVENKITLFFRNLNPVNEVGTLENENGSWKHGTTVIPA
# Experiments:
# Assay in all cases: glycan array binding signal (z-score within array); higher = stronger binding
# Conditions in all cases: glycan notation: IUPAC condensed, linker removed
# [1] = molecular target: Neu5Ac(a2-3)Gal(b1-3)GlcNAc6S
# Method in brief: (§1)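 Arrays were curated from the Consortium for Functional Glycomics database, 3228 in total, and kept only where the protein sequence was available. Binding is expressed as a within-array Z-score. This score was averaged across arrays of the same protein sequence at different concentrations or buffers and across linkers, and negative values can be read as non-binding.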
# [2] = molecular target: Neu5Ac(a2-3)Gal(b1-3)[Fuc(a1-4)]GlcNAc
# Method in brief: as §1
# [3] = molecular target: Neu5Ac(a2-3)Gal(b1-3)[Fuc(a1-4)]GlcNAc(b1-3)Gal(b1-3)[Fuc(a1-4)]GlcNAc
# Method in brief: as §1
# [4] = molecular target: Neu5Ac(a2-3)Gal(b1-3)[Fuc(a1-4)]GlcNAc(b1-3)Gal(b1-4)[Fuc(a1-3)]GlcNAc
# Method in brief: as §1
# [5] = molecular target: Neu5Ac(a2-3)Gal(b1-3)[GlcNAc(b1-6)]GalNAc
# Method in brief: as §1
# [6] = molecular target: Neu5Ac(a2-3)Gal(b1-3)[Neu5Ac(a2-6)]GalNAc
# Method in brief: as §1
# [7] = molecular target: Neu5Ac(a2-3)Gal(b1-3)[Neu5Ac(a2-6)]GlcNAc(b1-3)[Fuc(a1-3)[Gal(b1-4)]GlcNAc(b1-6)]Gal(b1-4)Glc
# Method in brief: as §1
# [8] = molecular target: Neu5Ac(a2-3)Gal(b1-3)]Neu5Ac(a2-3)Gal(b1-4)]GlcNAc
# Method in brief: as §1
# Neu5Ac(a2-3)Gal(b1-4)Glc = molecular target: Neu5Ac(a2-3)Gal(b1-4)Glc
# Method in brief: as §1
# [9] = molecular target: Neu5Ac(a2-3)Gal(b1-4)GlcNAc
# Method in brief: as §1
# [10] = molecular target: Neu5Ac(a2-3)Gal(b1-4)GlcNAc(b1-2)Man
# Method in brief: as §1
# [11] = molecular target: Neu5Ac(a2-3)Gal(b1-4)GlcNAc(b1-2)Man(a1-3)[GlcNAc(b1-4)][Neu5Ac(a2-3)Gal(b1-4)GlcNAc(b1-2)Man(a1-6)]Man(b1-4)GlcNAc(b1-4)GlcNAc
# Method in brief: as §1
# [12] = molecular target: Neu5Ac(a2-3)Gal(b1-4)GlcNAc(b1-2)Man(a1-3)[Neu5Ac(a2-3)Gal(b1-4)GlcNAc(b1-2)Man(a1-6)]Man(b1-4)GlcNAc(b1-4)GlcNAc
# Method in brief: as §1
# [13] = molecular target: Neu5Ac(a2-3)Gal(b1-4)GlcNAc(b1-2)Man(a1-3)[Neu5Ac(a2-3)Gal(b1-4)GlcNAc(b1-2)Man(a1-6)]Man(b1-4)GlcNAc(b1-4)[Fuc(a1-6)]GlcNAc
# Method in brief: as §1
# [14] = molecular target: Neu5Ac(a2-3)Gal(b1-4)GlcNAc(b1-2)Man(a1-3)[Neu5Ac(a2-6)Gal(b1-4)GlcNAc(b1-2)Man(a1-6)]Man(b1-4)GlcNAc(b1-4)GlcNAc
# Method in brief: as §1
# [15] = molecular target: Neu5Ac(a2-3)Gal(b1-4)GlcNAc(b1-2)[Neu5Ac(a2-3)Gal(b1-4)GlcNAc(b1-4)]Man(a1-3)[GlcNAc(b1-4)][Neu5Ac(a2-3)Gal(b1-4)GlcNAc(b1-2)[Neu5Ac(a2-3)Gal(b1-4)GlcNAc(b1-6)]Man(a1-6)]Man(b1-4)GlcNAc(b1-4)GlcNAc
# Method in brief: as §1
# [16] = molecular target: Neu5Ac(a2-3)Gal(b1-4)GlcNAc(b1-2)[Neu5Ac(a2-3)Gal(b1-4)GlcNAc(b1-4)]Man(a1-3)[GlcNAc(b1-4)][Neu5Ac(a2-3)Gal(b1-4)GlcNAc(b1-4)Man(a1-6)]Man(b1-4)GlcNAc(b1-4)GlcNAc
# Method in brief: as §1
# [17] = molecular target: Neu5Ac(a2-3)Gal(b1-4)GlcNAc(b1-2)[Neu5Ac(a2-3)Gal(b1-4)GlcNAc(b1-6)]Man(a1-6)[Neu5Ac(a2-3)Gal(b1-4)GlcNAc(b1-2)Man(a1-3)]Man(b1-4)GlcNAc(b1-4)GlcNAc
# Method in brief: as §1
# [18] = molecular target: Neu5Ac(a2-3)Gal(b1-4)GlcNAc(b1-2)[Neu5Ac(a2-3)Gal(b1-4)GlcNAc(b1-6)]Man(a1-6)[Neu5Ac(a2-3)Gal(b1-4)GlcNAc(b1-2)Man(a1-3)][GlcNAc(b1-4)]Man(b1-4)GlcNAc(b1-4)GlcNAc
# Method in brief: as §1
# [19] = molecular target: Neu5Ac(a2-3)Gal(b1-4)GlcNAc(b1-3)Gal
# Method in brief: as §1
# [20] = molecular target: Neu5Ac(a2-3)Gal(b1-4)GlcNAc(b1-3)Gal(b1-3)GlcNAc
# Method in brief: as §1
# [21] = molecular target: Neu5Ac(a2-3)Gal(b1-4)GlcNAc(b1-3)Gal(b1-4)GlcNAc
# Method in brief: as §1
# [22] = molecular target: Neu5Ac(a2-3)Gal(b1-4)GlcNAc(b1-3)Gal(b1-4)GlcNAc(b1-2)Man(a1-3)[Neu5Ac(a2-3)Gal(b1-4)GlcNAc(b1-3)Gal(b1-4)GlcNAc(b1-2)Man(a1-6)]Man(b1-4)GlcNAc(b1-4)GlcNAc
# Method in brief: as §1
# [23] = molecular target: Neu5Ac(a2-3)Gal(b1-4)GlcNAc(b1-3)Gal(b1-4)GlcNAc(b1-3)Gal(b1-4)GlcNAc
# Method in brief: as §1
# [24] = molecular target: Neu5Ac(a2-3)Gal(b1-4)GlcNAc(b1-3)Gal(b1-4)GlcNAc(b1-3)Gal(b1-4)GlcNAc(b1-2)Man(a1-3)[Neu5Ac(a2-3)Gal(b1-4)GlcNAc(b1-3)Gal(b1-4)GlcNAc(b1-3)Gal(b1-4)GlcNAc(b1-2)Man(a1-6)]GalNAc
# Method in brief: as §1
# [25] = molecular target: Neu5Ac(a2-3)Gal(b1-4)GlcNAc(b1-3)Gal(b1-4)GlcNAc(b1-3)GalNAc
# Method in brief: as §1
# [26] = molecular target: Neu5Ac(a2-3)Gal(b1-4)GlcNAc(b1-3)Gal(b1-4)GlcNAc(b1-3)[Neu5Ac(a2-3)Gal(b1-4)GlcNAc(b1-3)Gal(b1-4)GlcNAc(b1-6)]GalNAc
# Method in brief: as §1
# [27] = molecular target: Neu5Ac(a2-3)Gal(b1-4)GlcNAc(b1-3)Gal(b1-4)GlcNAc(b1-6)[Gal(b1-3)]GalNAc
# Method in brief: as §1
# [28] = molecular target: Neu5Ac(a2-3)Gal(b1-4)GlcNAc(b1-3)Gal(b1-4)[Fuc(a1-3)]GlcNAc
# Method in brief: as §1
# [29] = molecular target: Neu5Ac(a2-3)Gal(b1-4)GlcNAc(b1-3)GalNAc
# Method in brief: as §1
binder,measurement,setting,value
B1,glycan array binding signal (z-score),[1],0.814
same,glycan array binding signal (z-score),[2],-0.079
same,glycan array binding signal (z-score),[3],0.129
same,glycan array binding signal (z-score),[4],-0.071
same,glycan array binding signal (z-score),[5],-0.307
same,glycan array binding signal (z-score),[6],-0.244
same,glycan array binding signal (z-score),[7],-0.362
same,glycan array binding signal (z-score),[8],-0.352
same,glycan array binding signal (z-score),Neu5Ac(a2-3)Gal(b1-4)Glc,-0.021
same,glycan array binding signal (z-score),[9],-0.112
same,glycan array binding signal (z-score),[10],0.612
same,glycan array binding signal (z-score),[11],-0.476
same,glycan array binding signal (z-score),[12],-0.45
same,glycan array binding signal (z-score),[13],-0.361
same,glycan array binding signal (z-score),[14],-0.401
same,glycan array binding signal (z-score),[15],-0.294
same,glycan array binding signal (z-score),[16],-0.587
same,glycan array binding signal (z-score),[17],0.7
same,glycan array binding signal (z-score),[18],0.02
same,glycan array binding signal (z-score),[19],-0.245
same,glycan array binding signal (z-score),[20],-0.527
same,glycan array binding signal (z-score),[21],0.123
same,glycan array binding signal (z-score),[22],0.071
same,glycan array binding signal (z-score),[23],-0.498
same,glycan array binding signal (z-score),[24],0.167
same,glycan array binding signal (z-score),[25],-0.314
same,glycan array binding signal (z-score),[26],-0.269
same,glycan array binding signal (z-score),[27],-0.525
same,glycan array binding signal (z-score),[28],-0.102
same,glycan array binding signal (z-score),[29],-0.219
